Sequences with one replicate were seen in a single cluster, so their values are uncertain.
Tested on: ATP
Assay: switch fluorescence ratio, 500 uM ATP over buffer (Cy3 cluster intensity, sum of 5 cycles each) (fold (ratio)); higher = stronger signal-on switching upon ATP binding; sequences stand for … in TCGTCGGCAGCGTCAGATGTGTATAAGAGACAGTTTTTTTTTTTTTTTTTTTTTTTTT…TC
Settings: aptamer strand: ATP DNA aptamer (quencher-CACCTGGGGGAGTATTGCGGAGGAAGG + anchor), 100 nM annealed; ATP concentration: 500 uM; one replicate
Procedure, shortened: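 Five buffer/ATP imaging cycles were run on Cy3-labelled switching-strand clusters on a modified Illumina MiSeq flow-cell, with NaOH stripping and re-annealing between cycles. In each cycle, clusters annealed to 100 nM quencher-labelled ATP aptamer were imaged in selection buffer, then after 15 min with 500 uM ATP at 22 °C. Per cluster, the fluorescence ratio is summed target-cycle over summed buffer-cycle Cy3 intensity, averaged per switch-domain sequence. Only clusters within 100-1000 RFU were kept.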
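Note: ATP exposure 15 min at 22 °C before imaging.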

Sequence: TACAACGAGT
- switch fluorescence ratio: 1.01

Sequence: TACTAAAGTG
- switch fluorescence ratio: 1

Sequence: ATCCTCGGG
- switch fluorescence ratio: 1.02

Sequence: CGTCAGGCA
- switch fluorescence ratio: 1.03

Sequence: ATTGGTGTGC
- switch fluorescence ratio: 0.974

Sequence: GGATTCACGT
- switch fluorescence ratio: 0.995

Sequence: CTTAGATCAT
- switch fluorescence ratio: 0.994

Sequence: ACTAGGTAAA
- switch fluorescence ratio: 1

Sequence: CATATGTATT
- switch fluorescence ratio: 0.981

Sequence: AGTAGTATAA
- switch fluorescence ratio: 1.01

Sequence: CGATGTCAGG
- switch fluorescence ratio: 1.07

Sequence: TAGGCCTGAC
- switch fluorescence ratio: 1.26

Sequence: AATAGTATGC
- switch fluorescence ratio: 0.998

Sequence: ACCATTACCG
- switch fluorescence ratio: 1.2

Sequence: CGGTCAGGC
- switch fluorescence ratio: 0.95

Sequence: TTGATCATAA
- switch fluorescence ratio: 1.07

Sequence: CATTGTCTCT
- switch fluorescence ratio: 1.02

Sequence: CTAGGCACTG
- switch fluorescence ratio: 1.06

Sequence: CATTTCATGC
- switch fluorescence ratio: 0.981

Sequence: GGTAGGTA
- switch fluorescence ratio: 1.05

Sequence: CCAGTATAGC
- switch fluorescence ratio: 1.07

Sequence: GGCCGCTCTA
- switch fluorescence ratio: 1.05

Sequence: AAAGCGAGGA
- switch fluorescence ratio: 1.11

Sequence: ACAGCCTAAG
- switch fluorescence ratio: 1.06

Sequence: CCAACTGGGC
- switch fluorescence ratio: 1.12

Sequence: AGATACGCTG
- switch fluorescence ratio: 0.956

Sequence: GCAGTCGGCC
- switch fluorescence ratio: 1.01

Sequence: CTAACGTCGA
- switch fluorescence ratio: 1.09

Sequence: ATCATGCGTC
- switch fluorescence ratio: 1.07

Sequence: GCCTTACCAG
- switch fluorescence ratio: 1.1

Sequence: TTAGCCCCTT
- switch fluorescence ratio: 1.02

Sequence: TAAAAAAGGG
- switch fluorescence ratio: 0.954

Sequence: CGGTGTTTTT
- switch fluorescence ratio: 1.03

Sequence: AGCGCATTGA
- switch fluorescence ratio: 1

Sequence: CATTTGGTTT
- switch fluorescence ratio: 0.97

Sequence: AGAATAGAGG
- switch fluorescence ratio: 1.02

Sequence: AGTGGCTGTA
- switch fluorescence ratio: 1.01

Sequence: GGAAAAATAT
- switch fluorescence ratio: 0.933

Sequence: GCGTATAT
- switch fluorescence ratio: 1.32

Sequence: TTACTACAAG
- switch fluorescence ratio: 1.03

Sequence: AGTTTATTTA
- switch fluorescence ratio: 1.01

Sequence: CGGGTGACAG
- switch fluorescence ratio: 0.987

Sequence: AAAACATGCG
- switch fluorescence ratio: 1.07

Sequence: ATAATGTAGG
- switch fluorescence ratio: 0.963

Sequence: TGCTTATCT
- switch fluorescence ratio: 1.03

Sequence: GTAGTCTA
- switch fluorescence ratio: 1.02

Sequence: AGGACAAGAA
- switch fluorescence ratio: 1.01

Sequence: TTACTTAATA
- switch fluorescence ratio: 0.973

Sequence: TACACTTCGG
- switch fluorescence ratio: 1.01

Sequence: GCATTAGGCG
- switch fluorescence ratio: 1.03

Sequence: TGCATAGGTT
- switch fluorescence ratio: 0.95

Sequence: TGACTCCCGT
- switch fluorescence ratio: 1.12

Sequence: CAGCCTATAA
- switch fluorescence ratio: 1.04

Sequence: ATGCGCGGAC
- switch fluorescence ratio: 1.51

Sequence: GGTGGGACAG
- switch fluorescence ratio: 1

Sequence: TAATGTTCTG
- switch fluorescence ratio: 1.05

Sequence: CCACTGATGG
- switch fluorescence ratio: 0.994

Sequence: GGCTGCAGGG
- switch fluorescence ratio: 0.956

Sequence: GGGCGGATCC
- switch fluorescence ratio: 0.958

Sequence: ACAATTTTAG
- switch fluorescence ratio: 0.973

Sequence: CTTCACGTCG
- switch fluorescence ratio: 0.985

Sequence: GCCAATAGGG
- switch fluorescence ratio: 0.943

Sequence: TTTCGTCGCC
- switch fluorescence ratio: 1.01

Sequence: ACTGTAGGAG
- switch fluorescence ratio: 1.12

Sequence: GTGGACGTGC
- switch fluorescence ratio: 1.02

Sequence: AACTCTCGGA
- switch fluorescence ratio: 0.994

Sequence: ACACGTGGTA
- switch fluorescence ratio: 0.995

Sequence: CCTACTAAAG
- switch fluorescence ratio: 1.05

Sequence: AAGATTGGAT
- switch fluorescence ratio: 1.01

Sequence: CCAAAAACCT
- switch fluorescence ratio: 1.36

Sequence: GACGTGTACT
- switch fluorescence ratio: 1.2

Sequence: TAAATCGGAA
- switch fluorescence ratio: 1

Sequence: CTCTGGGTAA
- switch fluorescence ratio: 1.21

Sequence: GATTGGTGAC
- switch fluorescence ratio: 1.04

Sequence: GCACGCACCA
- switch fluorescence ratio: 1.44

Sequence: ATATGGTTAA
- switch fluorescence ratio: 1.02

Sequence: GGTATGTATC
- switch fluorescence ratio: 0.968

Sequence: TAGCAATTGT
- switch fluorescence ratio: 1.03

Sequence: AGCTGGGTTA
- switch fluorescence ratio: 1.03

Sequence: CCATAATTTT
- switch fluorescence ratio: 1.02

Sequence: CGGTCAGTGA
- switch fluorescence ratio: 1

Sequence: AGCACGAACG
- switch fluorescence ratio: 1.19

Sequence: GCTATTAACA
- switch fluorescence ratio: 1.06

Sequence: TGATTTTGAT
- switch fluorescence ratio: 0.999

Sequence: AAACATACAT
- switch fluorescence ratio: 1.14

Sequence: CTACGTAGGG
- switch fluorescence ratio: 1.04

Sequence: GGGATTAAAC
- switch fluorescence ratio: 1.06

Sequence: GCATGCTCTG
- switch fluorescence ratio: 0.976

Sequence: CGCGCAGAGT
- switch fluorescence ratio: 0.998

Sequence: GGCCATACCG
- switch fluorescence ratio: 1

Sequence: TTAATTGTG
- switch fluorescence ratio: 0.96

Sequence: TTTTTAAGT
- switch fluorescence ratio: 0.977

Sequence: GCGCATGTTG
- switch fluorescence ratio: 0.987

Sequence: TATCCAGTAC
- switch fluorescence ratio: 1.18

Sequence: ATGTACTAAA
- switch fluorescence ratio: 1.08

Sequence: ATCAGGCCTC
- switch fluorescence ratio: 0.977

Sequence: GTTTTTGCGA
- switch fluorescence ratio: 0.972

Sequence: TCACTCACCA
- switch fluorescence ratio: 1.23

Sequence: GATGACACTC
- switch fluorescence ratio: 1.02

Sequence: ACCTCGCCGA
- switch fluorescence ratio: 1.11

Sequence: CAGGATTAAC
- switch fluorescence ratio: 1.04

Sequence: CCCGTGCCCA
- switch fluorescence ratio: 1.02

Sequence: TGGACCCCAT
- switch fluorescence ratio: 1.02

Sequence: GTCGTGCGGG
- switch fluorescence ratio: 0.983

Sequence: TCCTCAAGAT
- switch fluorescence ratio: 2.27

Sequence: AGGTTTTCG
- switch fluorescence ratio: 1

Sequence: GGTTGGATGC
- switch fluorescence ratio: 1

Sequence: ATGTTCCACC
- switch fluorescence ratio: 1.06

Sequence: TGATTCATCA
- switch fluorescence ratio: 0.972

Sequence: AATAGCTGGA
- switch fluorescence ratio: 1.01

Sequence: TAAACTATAA
- switch fluorescence ratio: 0.962

Sequence: AACCCCGACC
- switch fluorescence ratio: 1.86

Sequence: GTCGGGGCTT
- switch fluorescence ratio: 1.02

Sequence: GTCGCGCTGC
- switch fluorescence ratio: 0.886

Sequence: GCCAACCGTA
- switch fluorescence ratio: 0.991

Sequence: CTATACGACC
- switch fluorescence ratio: 2.53

Sequence: GGTTTTTG
- switch fluorescence ratio: 0.988

Sequence: TGAGCGTGT
- switch fluorescence ratio: 1.05

Sequence: TTATGCGCTT
- switch fluorescence ratio: 2.28

Sequence: GAGCCCGAGG
- switch fluorescence ratio: 1.1

Sequence: AAGTGAGACA
- switch fluorescence ratio: 1.04

Sequence: CACGGGCATC
- switch fluorescence ratio: 1.06

Sequence: GGCTCGCGTA
- switch fluorescence ratio: 1.17

Sequence: TAGCTAACGG
- switch fluorescence ratio: 1.05

Sequence: AGTGCCTTGT
- switch fluorescence ratio: 0.993

Sequence: CCTGTATTCC
- switch fluorescence ratio: 1.1

Sequence: CGATGTCGGA
- switch fluorescence ratio: 0.995

Sequence: TATGATGCGC
- switch fluorescence ratio: 0.989

Sequence: CCCGTATACC
- switch fluorescence ratio: 1.98

Sequence: CAAAGTCTGA
- switch fluorescence ratio: 1.01

Sequence: GAACAAGTGC
- switch fluorescence ratio: 1.11

Sequence: TTAACAAACC
- switch fluorescence ratio: 1.01

Sequence: TGGGCCAGAA
- switch fluorescence ratio: 1.03

Sequence: TTAATGCTCG
- switch fluorescence ratio: 1.01

Sequence: CCAGGACTAT
- switch fluorescence ratio: 1.01

Sequence: CGGTGGCACA
- switch fluorescence ratio: 1.01

Sequence: ATCCCGGATC
- switch fluorescence ratio: 0.991

Sequence: TGGTTCCGTG
- switch fluorescence ratio: 1.12

Sequence: TTTGCAGTT
- switch fluorescence ratio: 0.936

Sequence: ATGTCCCCAT
- switch fluorescence ratio: 1.02

Sequence: AGGAGTGGGC
- switch fluorescence ratio: 0.718

Sequence: GCGCGCACAG
- switch fluorescence ratio: 0.981

Sequence: GTTGTGTCAC
- switch fluorescence ratio: 1.01

Sequence: CAATTCTGGT
- switch fluorescence ratio: 0.953

Sequence: ATGGTAAAGG
- switch fluorescence ratio: 0.991

Sequence: CAAACGCCTG
- switch fluorescence ratio: 1.05

Sequence: AAGTGGGGAA
- switch fluorescence ratio: 1.06

Sequence: GGGACCTGGA
- switch fluorescence ratio: 1.04

Sequence: GTAGAAACGG
- switch fluorescence ratio: 0.982

Sequence: GATTAAGTGT
- switch fluorescence ratio: 0.973

Sequence: TATGACGCTT
- switch fluorescence ratio: 1.19

Sequence: ACGAATTCTC
- switch fluorescence ratio: 1.04

Sequence: TTCTCTGAGT
- switch fluorescence ratio: 0.936

Sequence: ACGGCCGCTA
- switch fluorescence ratio: 1.09

Sequence: AATTAACG
- switch fluorescence ratio: 1.01

Sequence: TGTTCGGTTG
- switch fluorescence ratio: 1

Sequence: AGATCCGGAC
- switch fluorescence ratio: 0.958

Reference: the supplement of paper PMC10126150
